Experimental findings from paper PMC4564936, “The Complex Energy Landscape of the Protein IscU” (Biophysical Journal, 2015) are described below.

The data set deals with the molecule itself. The experiment in a line: SAXS; purified protein dialysed extensively (>12 h), buffer conditions as used for the NMR studies with DTT as reductant; variable temperature; molecular mass by the Vc method; monomer to dimer.

B1: IscU(P101A) (natural protein, E. coli, UniProt P0ACD4 1-128, looked up)
chain: MAYSEKVIDHYENPRNVGSFDNNDENVGSGMVGAPACGDVMKLQIKVNDEGIIEDARFKTYGCGSAIASSSLVTEWVKGKSLDEAQAIKNTDIAEELELPAVKIHCSILAEDAIKAAIADYKSKREAK
notes: IscU, E. coli, variant P101A; cloned in a pE-SUMO plasmid; also called P101A variant of IscU; source: E. coli BL21 RILP(DE3), purified (Ni-NTA, SUMO protease cleavage, IMAC flow-through, gel filtration)
What is called stoichiometry N is the number of molecules, sites or subunits per partner or assembly. With B1, the “stoichiometry N” value was found to be 2.
